Seven molecules from PMC4605305, “TRAP150 interacts with the RNA-binding domain of PSF and antagonizes splicing of numerous PSF-target genes in T cells” (Nucleic Acids Research, 2015) can be followed below.

No constants are given. Whether binding was seen depends on the method and setting. For some of these results: In cells and extracts the contact can be indirect. Some results given as binding are weak or reduced against the parent protein; the word gives no strength. For some of these results: Where a sequence is shown, tags or fusion partners need not be part of it.

For test [1], the target named is T1, GST-TRAPΔN (TRAP150 266-955) (UniProt Q9Y2W1).
T1 sequence: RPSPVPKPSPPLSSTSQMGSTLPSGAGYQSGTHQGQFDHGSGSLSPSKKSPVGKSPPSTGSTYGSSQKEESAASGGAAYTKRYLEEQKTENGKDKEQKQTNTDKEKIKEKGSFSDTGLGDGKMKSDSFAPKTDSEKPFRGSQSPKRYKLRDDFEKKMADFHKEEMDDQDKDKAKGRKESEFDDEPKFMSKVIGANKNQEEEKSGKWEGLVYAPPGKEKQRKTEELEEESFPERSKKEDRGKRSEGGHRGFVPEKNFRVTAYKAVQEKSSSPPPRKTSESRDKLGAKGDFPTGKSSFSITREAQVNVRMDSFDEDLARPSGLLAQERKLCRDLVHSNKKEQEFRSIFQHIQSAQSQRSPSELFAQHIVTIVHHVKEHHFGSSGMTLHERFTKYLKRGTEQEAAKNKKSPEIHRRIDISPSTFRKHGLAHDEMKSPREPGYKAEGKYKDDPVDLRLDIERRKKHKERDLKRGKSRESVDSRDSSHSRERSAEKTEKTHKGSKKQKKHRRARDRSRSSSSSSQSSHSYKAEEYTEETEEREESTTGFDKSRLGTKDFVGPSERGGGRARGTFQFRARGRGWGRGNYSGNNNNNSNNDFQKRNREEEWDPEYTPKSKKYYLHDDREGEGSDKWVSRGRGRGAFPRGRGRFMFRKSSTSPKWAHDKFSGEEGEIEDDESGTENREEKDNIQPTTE
The test can be described thus: pull-down; 40 ug GST-tagged bait on glutathione sepharose 4B beads; prey incubated 1.5 h at 4°C in PBS; washes with PBS supplemented with 300 mM NaCl; western blot; both purified.

Substrate in test [2]: T2, PSF (endogenous, JSL1 nuclear extract) (human (endogenous in JSL1 Jurkat cells)) (UniProt P23246)
T2 sequence: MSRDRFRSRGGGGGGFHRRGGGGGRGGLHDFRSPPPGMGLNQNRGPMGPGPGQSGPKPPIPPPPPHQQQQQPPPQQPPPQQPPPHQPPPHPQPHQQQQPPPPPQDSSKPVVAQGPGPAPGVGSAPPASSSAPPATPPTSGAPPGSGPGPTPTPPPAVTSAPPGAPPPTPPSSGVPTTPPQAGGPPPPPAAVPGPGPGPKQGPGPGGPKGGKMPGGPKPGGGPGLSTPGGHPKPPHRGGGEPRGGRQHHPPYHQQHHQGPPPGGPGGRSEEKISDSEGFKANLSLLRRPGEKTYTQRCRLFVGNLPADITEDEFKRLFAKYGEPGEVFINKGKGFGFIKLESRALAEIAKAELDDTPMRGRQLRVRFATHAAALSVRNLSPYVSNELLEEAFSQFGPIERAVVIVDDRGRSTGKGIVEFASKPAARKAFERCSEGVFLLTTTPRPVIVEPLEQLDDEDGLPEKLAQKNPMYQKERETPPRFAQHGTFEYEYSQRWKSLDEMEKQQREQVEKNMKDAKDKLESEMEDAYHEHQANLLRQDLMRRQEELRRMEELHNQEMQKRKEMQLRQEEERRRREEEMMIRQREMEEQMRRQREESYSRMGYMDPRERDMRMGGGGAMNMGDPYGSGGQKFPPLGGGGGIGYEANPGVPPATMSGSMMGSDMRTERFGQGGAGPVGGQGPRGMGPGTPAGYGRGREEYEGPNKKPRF
The test can be described thus: co-IP; IP with PSF antibody from RNase-treated nuclear extract of JSL1 cells, unstimulated or stimulated with PMA; protein G Dynabeads; western blot.

B1: HisFLAG-PSF exRRM2 (366-484) (domain or fragment, UniProt P23246 366-484)
chain: FATHAAALSVRNLSPYVSNELLEEAFSQFGPIERAVVIVDDRGRSTGKGIVEFASKPAARKAFERCSEGVFLLTTTPRPVIVEPLEQLDDEDGLPEKLAQKNPMYQKERETPPRFAQHG
Take B1: the binding entry in test [1] is “no binding”.

B2: Matrin 3 (endogenous, JSL1 nuclear extract) (protein, UniProt P43243 1-847)
chain: MSKSFQQSSLSRDSQGHGRDLSAAGIGLLAAATQSLSMPASLGRMNQGTARLASLMNLGMSSSLNQQGAHSALSSASTSSHNLQSIFNIGSRGPLPLSSQHRGDADQASNILASFGLSARDLDELSRYPEDKITPENLPQILLQLKRRRTEEGPTLSYGRDGRSATREPPYRVPRDDWEEKRHFRRDSFDDRGPSLNPVLDYDHGSRSQESGYYDRMDYEDDRLRDGERCRDDSFFGETSHNYHKFDSEYERMGRGPGPLQERSLFEKKRGAPPSSNIEDFHGLLPKGYPHLCSICDLPVHSNKEWSQHINGASHSRRCQLLLEIYPEWNPDNDTGHTMGDPFMLQQSTNPAPGILGPPPPSFHLGGPAVGPRGNLGAGNGNLQGPRHMQKGRVETSRVVHIMDFQRGKNLRYQLLQLVEPFGVISNHLILNKINEAFIEMATTEDAQAAVDYYTTTPALVFGKPVRVHLSQKYKRIKKPEGKPDQKFDQKQELGRVIHLSNLPHSGYSDSAVLKLAEPYGKIKNYILMRMKSQAFIEMETREDAMAMVDHCLKKALWFQGRCVKVDLSEKYKKLVLRIPNRGIDLLKKDKSRKRSYSPDGKESPSDKKSKTDGSQKTESSTEGKEQEEKSGEDGEKDTKDDQTEQEPNMLLESEDELLVDEEEAAALLESGSSVGDETDLANLGDVASDGKKEPSDKAVKKDGSASAAAKKKLKKVDKIEELDQENEAALENGIKNEENTEPGAESSENADDPNKDTSENADGQSDENKDDYTIPDEYRIGPYQPNVPVGIDYVIPKTGFYCKLCSLFYTNEEVAKNTHCSSLPHYQKLKKFLNKLAEERRQKKET
For B2, the binding entry in test [2] is reported as “binds”.

B3: His-hnRNPL (protein, UniProt P14866 1-589)
chain: MSRRLLPRAEKRRRRLEQRQQPDEQRRRSGAMVKMAAAGGGGGGGRYYGGGSEGGRAPKRLKTDNAGDQHGGGGGGGGGAGAAGGGGGGENYDDPHKTPASPVVHIRGLIDGVVEADLVEALQEFGPISYVVVMPKKRQALVEFEDVLGACNAVNYAADNQIYIAGHPAFVNYSTSQKISRPGDSDDSRSVNSVLLFTILNPIYSITTDVLYTICNPCGPVQRIVIFRKNGVQAMVEFDSVQSAQRAKASLNGADIYSGCCTLKIEYAKPTRLNVFKNDQDTWDYTNPNLSGQGDPGSNPNKRQRQPPLLGDHPAEYGGPHGGYHSHYHDEGYGPPPPHYEGRRMGPPVGGHRRGPSRYGPQYGHPPPPPPPPEYGPHADSPVLMVYGLDQSKMNCDRVFNVFCLYGNVEKVKFMKSKPGAAMVEMADGYAVDRAITHLNNNFMFGQKLNVCVSKQPAIMPGQSYGLEDGSCSYKDFSESRNNRFSTPEQAAKNRIQHPSNVLHFFNAPLEVTEENFFEICDELGVKRPSSVKVFSGKSERSSSGLLEWESKSDALETLGFLNHYQMKNPNGPYPYTLKLCFSTAQHAS
Take B3: in test [1], the binding result was “no binding”.

B4: PSPC1 (endogenous, JSL1 nuclear extract) (protein, UniProt Q8WXF1 1-523)
chain: MMLRGNLKQVRIEKNPARLRALESAVGESEPAAAAAMALALAGEPAPPAPAPPEDHPDEEMGFTIDIKSFLKPGEKTYTQRCRLFVGNLPTDITEEDFKRLFERYGEPSEVFINRDRGFGFIRLESRTLAEIAKAELDGTILKSRPLRIRFATHGAALTVKNLSPVVSNELLEQAFSQFGPVEKAVVVVDDRGRATGKGFVEFAAKPPARKALERCGDGAFLLTTTPRPVIVEPMEQFDDEDGLPEKLMQKTQQYHKEREQPPRFAQPGTFEFEYASRWKALDEMEKQQREQVDRNIREAKEKLEAEMEAARHEHQLMLMRQDLMRRQEELRRLEELRNQELQKRKQIQLRHEEEHRRREEEMIRHREQEELRRQQEGFKPNYMENREQEMRMGDMGPRGAINMGDAFSPAPAGNQGPPPMMGMNMNNRATIPGPPMGPGPAMGPEGAANMGTPMMPDNGAVHNDRFPQGPPSQMGSPMGSRTGSETPQAPMSGVGPVSGGPGGFGRGSQGGNFEGPNKRRRY
As for B4, in test [2], the binding result is listed as “binds”.

B5: HisFLAG-PSF exRRM1 (266-365) (domain or fragment, UniProt P23246 266-365)
chain: GRSEEKISDSEGFKANLSLLRRPGEKTYTQRCRLFVGNLPADITEDEFKRLFAKYGEPGEVFINKGKGFGFIKLESRALAEIAKAELDDTPMRGRQLRVR
B5: the binding result in test [1] is “no binding”.

B6: HisFLAG-PSF minRRMs (299-449) (domain or fragment, UniProt P23246 299-449)
chain: LFVGNLPADITEDEFKRLFAKYGEPGEVFINKGKGFGFIKLESRALAEIAKAELDDTPMRGRQLRVRFATHAAALSVRNLSPYVSNELLEEAFSQFGPIERAVVIVDDRGRSTGKGIVEFASKPAARKAFERCSEGVFLLTTTPRPVIVEP
As to B6, the binding entry in test [1] is reported as “no binding”.

B7: HisFLAG-PSF ΔRRMs (protein, UniProt P23246 1-298; P23246 450-707)
chain: MSRDRFRSRGGGGGGFHRRGGGGGRGGLHDFRSPPPGMGLNQNRGPMGPGPGQSGPKPPIPPPPPHQQQQQPPPQQPPPQQPPPHQPPPHPQPHQQQQPPPPPQDSSKPVVAQGPGPAPGVGSAPPASSSAPPATPPTSGAPPGSGPGPTPTPPPAVTSAPPGAPPPTPPSSGVPTTPPQAGGPPPPPAAVPGPGPGPKQGPGPGGPKGGKMPGGPKPGGGPGLSTPGGHPKPPHRGGGEPRGGRQHHPPYHQQHHQGPPPGGPGGRSEEKISDSEGFKANLSLLRRPGEKTYTQRCRGGSGHMLEQLDDEDGLPEKLAQKNPMYQKERETPPRFAQHGTFEYEYSQRWKSLDEMEKQQREQVEKNMKDAKDKLESEMEDAYHEHQANLLRQDLMRRQEELRRMEELHNQEMQKRKEMQLRQEEERRRREEEMMIRQREMEEQMRRQREESYSRMGYMDPRERDMRMGGGGAMNMGDPYGSGGQKFPPLGGGGGIGYEANPGVPPATMSGSMMGSDMRTERFGQGGAGPVGGQGPRGMGPGTPAGYGRGREEYEGPNKKPRF
Take B7: the binding result in test [1] was “no binding”.
